From PMC4336329 (PLoS ONE, 2015)
Out of some 310,000 compounds screened, about 2,200 (0.71%) showed an effect of 50% or more. The effect is printed as a negative number. This is one part of the list.

Each molecule was assayed against human ether-à-go-go-related gene (hERG) potassium channel (human, UniProt Q12809) (assay: primary screen, population patch clamp on CHO cells stably expressing hERG).
human ether-à-go-go-related gene (hERG) potassium channel, sequence (Q12809 whole entry, looked up): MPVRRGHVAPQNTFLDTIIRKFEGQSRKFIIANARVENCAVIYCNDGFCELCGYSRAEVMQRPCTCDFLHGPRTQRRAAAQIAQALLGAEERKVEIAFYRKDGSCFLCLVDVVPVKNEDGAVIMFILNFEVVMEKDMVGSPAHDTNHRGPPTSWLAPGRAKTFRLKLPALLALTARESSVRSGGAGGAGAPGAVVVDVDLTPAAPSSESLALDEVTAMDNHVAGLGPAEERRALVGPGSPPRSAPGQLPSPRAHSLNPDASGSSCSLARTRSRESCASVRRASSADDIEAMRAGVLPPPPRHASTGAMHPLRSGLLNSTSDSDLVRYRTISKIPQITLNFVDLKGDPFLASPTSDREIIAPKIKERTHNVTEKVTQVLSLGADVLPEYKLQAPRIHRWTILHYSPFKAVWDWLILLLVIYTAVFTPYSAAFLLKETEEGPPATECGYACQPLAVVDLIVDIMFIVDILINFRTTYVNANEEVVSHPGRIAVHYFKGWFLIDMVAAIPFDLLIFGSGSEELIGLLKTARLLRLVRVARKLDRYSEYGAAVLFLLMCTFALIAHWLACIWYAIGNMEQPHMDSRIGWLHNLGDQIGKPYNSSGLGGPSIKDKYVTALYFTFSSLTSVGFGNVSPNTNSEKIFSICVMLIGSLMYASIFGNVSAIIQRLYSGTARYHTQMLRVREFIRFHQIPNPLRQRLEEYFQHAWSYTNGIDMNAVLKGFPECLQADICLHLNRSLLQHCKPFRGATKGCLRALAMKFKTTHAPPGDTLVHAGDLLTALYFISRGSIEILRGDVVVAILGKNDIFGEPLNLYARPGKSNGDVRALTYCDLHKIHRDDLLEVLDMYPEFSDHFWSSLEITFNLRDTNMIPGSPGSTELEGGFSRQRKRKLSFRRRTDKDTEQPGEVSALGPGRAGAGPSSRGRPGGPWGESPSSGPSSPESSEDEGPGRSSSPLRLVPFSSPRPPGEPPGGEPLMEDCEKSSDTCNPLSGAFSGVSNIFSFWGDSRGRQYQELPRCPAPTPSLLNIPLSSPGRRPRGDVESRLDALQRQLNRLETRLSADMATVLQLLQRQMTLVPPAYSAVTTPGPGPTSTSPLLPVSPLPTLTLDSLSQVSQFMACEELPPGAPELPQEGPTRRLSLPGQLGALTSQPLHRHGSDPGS
`Cc1cc(/C=C2\SC(=O)N(C)C2=O)c(C)n1-c1cccc(C(=O)O)c1` was tested, and the “hERG current change (%, negative = inhibition) at 1uM” value was 17.4%. `Cc1cccc(-n2cc(-c3ccccc3)[nH]c2=S)c1` was tested, and the “hERG current change (%, negative = inhibition) at 1uM” value was 8.99%. With `Cc1nc2c(ncn2-c2ccccc2)c(=O)n1NC(=O)CN1CCOCC1` the “hERG current change (%, negative = inhibition) at 1uM” value was 16.6%. `Cc1[nH][nH]c(=O)c1C=NCc1cccnc1` was tested, and the “hERG current change (%, negative = inhibition) at 1uM” value was 14.3%. For `COc1cc(Cl)c(C)cc1NC(=O)CN1C(=O)C2CCCCC2C1=O` (centres unmarked), the “hERG current change (%, negative = inhibition) at 1uM” value was 8.86%. `CCOc1ccc(C(=O)CC(=O)C(=O)NCCc2ccc(OC)c(OC)c2)cc1` was tested, and the “hERG current change (%, negative = inhibition) at 1uM” value was 4.25%. With `CCOC(=O)c1sc(NC(=O)CCc2ccc(OC)cc2)nc1C` the “hERG current change (%, negative = inhibition) at 1uM” value was 22.4%. `CCC(C)NC(=O)/C=C/c1ccc(S(=O)(=O)NCc2ccco2)cc1` (centres unmarked) was tested, and the “hERG current change (%, negative = inhibition) at 1uM” value was 5.24%. `CCOCCCNC(=O)C(c1ccc(Cl)cc1)N1CCN(C(=O)c2ccco2)CC1` (centres unmarked) was tested, and the “hERG current change (%, negative = inhibition) at 1uM” value was 5.23%. For `Cc1ccc(N2C(=O)N(CC(=O)Nc3cccc(Cl)c3)C(=O)C2C)cc1` (centres unmarked), the “hERG current change (%, negative = inhibition) at 1uM” value was 3.78%. In the case of `CC(C)=CC(=O)OCC(=O)Nc1ccc(SC(F)F)cc1`, the “hERG current change (%, negative = inhibition) at 1uM” value is reported as 5.18%. `CCCCCCSC1=C(C#N)C(c2ccc(C)o2)CC(=O)N1` (centres unmarked) was tested, and the “hERG current change (%, negative = inhibition) at 1uM” value was 12.4%. In the case of `O=S(=O)(Nc1n[nH]c(C(F)(F)F)n1)c1ccccc1`, the “hERG current change (%, negative = inhibition) at 1uM” value is reported as -0.239%. In the case of `CC12CCC(=O)N1C(C(=O)NNC(=O)c1cccc(Cl)c1)CS2` (centres unmarked), the “hERG current change (%, negative = inhibition) at 1uM” value is reported as 13.2%. With `CCCCN(CC)CCCNC(=S)Nc1ccc2nc3n(c(=O)c2c1)CCCCC3` the “hERG current change (%, negative = inhibition) at 1uM” value was 8.48%. `CC(NC(=O)COc1ccc(/C=N/NC(=O)C(=O)Nc2ccccc2Br)cc1)c1ccccc1` (centres unmarked) was tested, and the “hERG current change (%, negative = inhibition) at 1uM” value was 15.9%. In the case of `Cc1cc(C)cc(NC(=S)NCc2cccs2)c1`, the “hERG current change (%, negative = inhibition) at 1uM” value is reported as -2.37%. For `COc1ccc(NC(=O)CSc2nnc(Cn3cnc4ccccc43)n2C)cc1`, the “hERG current change (%, negative = inhibition) at 1uM” value was 4.38%. `CCCCCCCOc1ccc(C2(C)NC(=O)NC2=O)cc1` (centres unmarked) was tested, and the “hERG current change (%, negative = inhibition) at 1uM” value was 13.2%. With `CC(C)CN(CCOc1cccc(N2C(=O)C3=C(CCCC3)C2=O)c1)CC(C)C` the “hERG current change (%, negative = inhibition) at 1uM” value was -6.8%. For `Cc1cc(C)nc(N/N=C/c2cn[nH]c2-c2ccccc2)n1`, the “hERG current change (%, negative = inhibition) at 1uM” value was 5.15%. For `Cc1ccc(NC(=O)c2ccc(OC(=O)CCN3C(=O)c4ccccc4C3=O)cc2)cc1`, the “hERG current change (%, negative = inhibition) at 1uM” value was 3.77%. `COc1ccc(-c2cc(C(=O)Nc3nc4ccccc4s3)c3ccccc3n2)cc1OC` was tested, and the “hERG current change (%, negative = inhibition) at 1uM” value was 16.7%. For `COc1ccc(C(=O)CCN2CCCC(C)C2)cc1.Cl` (centres unmarked), the “hERG current change (%, negative = inhibition) at 1uM” value was 3.18%. `COc1ccccc1C1=Nn2c(nnc2C2CCCCC2)SC1` was tested, and the “hERG current change (%, negative = inhibition) at 1uM” value was -1.01%. `COc1ccc(N(C(=O)c2cnccn2)C(C(=O)NC2CCCCC2)c2cc(OC)c(OC)c(OC)c2)cc1` (centres unmarked) was tested, and the “hERG current change (%, negative = inhibition) at 1uM” value was 18.5%. In the case of `CCN(C(=O)CSc1nc2cc(C(=O)OC)ccc2c(=O)n1Cc1ccco1)c1cccc(C)c1`, the “hERG current change (%, negative = inhibition) at 1uM” value is reported as 7.87%. For `CC1CCCC(NC(=O)C2CCN(C(=O)Nc3ccccc3)CC2)C1C` (centres unmarked), the “hERG current change (%, negative = inhibition) at 1uM” value was -0.501%. For `CCOC(=O)Cn1nc(NC(=O)COc2ccc(F)cc2)cc1C`, the “hERG current change (%, negative = inhibition) at 1uM” value was 6.51%. With `COCc1nnc(NC(=O)CC(C)c2ccccc2)s1` (centres unmarked) the “hERG current change (%, negative = inhibition) at 1uM” value was 21.9%. `COC(=O)C1=C(C)NC2=C(C(=O)C(C(=O)OC)C(c3ccc(OC)cc3)C2)C1c1ccccn1` (centres unmarked) was tested, and the “hERG current change (%, negative = inhibition) at 1uM” value was 5.1%. In the case of `COc1ccc(C(=O)OCc2cc(=O)n3c(C)csc3n2)cc1F`, the “hERG current change (%, negative = inhibition) at 1uM” value is reported as 8.66%. With `CCOC(=O)c1c(NC(=O)CSc2nnc(CNc3ccc(OC)cc3)n2C)sc(C)c1C` the “hERG current change (%, negative = inhibition) at 1uM” value was 10.2%. `COc1ccc(S(=O)(=O)N2CCCCCC2)cc1C(=O)OCC(=O)Nc1cc(C)on1` was tested, and the “hERG current change (%, negative = inhibition) at 1uM” value was 5.47%. With `CCCNC(=O)COC(=O)/C=C/c1ccco1` the “hERG current change (%, negative = inhibition) at 1uM” value was 2%. For `COc1cccc(CN2CCNC(=O)C2CC(=O)N2CCOc3ccccc3C2)c1OC` (centres unmarked), the “hERG current change (%, negative = inhibition) at 1uM” value was 10.6%. With `c1ccc2c(CNC3CCCCC3)c[nH]c2c1` the “hERG current change (%, negative = inhibition) at 1uM” value was -1.89%. With `CCOc1ccc(C(=O)NCCc2cnc[nH]2)cc1` the “hERG current change (%, negative = inhibition) at 1uM” value was 14.7%. In the case of `COc1cccc(NC(=O)CN2C(=O)NC(CCc3ccccc3)C2=O)c1` (centres unmarked), the “hERG current change (%, negative = inhibition) at 1uM” value is reported as -4.25%. In the case of `C/C(=N\Nc1ccccc1)c1c(O)cc(C)oc1=O`, the “hERG current change (%, negative = inhibition) at 1uM” value is reported as 11%. In the case of `O=C1/C(=C/c2ccc3c(c2)OCO3)Oc2cc(OCC(=O)N3CCC[C@H]3C(=O)O)ccc21`, the “hERG current change (%, negative = inhibition) at 1uM” value is reported as 7.82%. In the case of `Cc1cc(C)c(C#N)c(N2CCCC2)n1`, the “hERG current change (%, negative = inhibition) at 1uM” value is reported as 7.92%. With `CC(=O)N/C(=C\c1ccc(F)cc1)C(=O)NC(Cc1c[nH]c2ccccc12)C(=O)O` (centres unmarked) the “hERG current change (%, negative = inhibition) at 1uM” value was -4.65%. For `Cc1cc(OCC(=O)NCCN2CCOCC2)cc(C)c1Cl`, the “hERG current change (%, negative = inhibition) at 1uM” value was 12.8%.
